{"source": "the supplement of paper PMC3334620", "note": "Whole data set: some 33,000 sequences, median “E-score (-0.5 to 0.5)” near -0.054, cut for the highest 2% near 0.39. This is one part of the list.", "data": [{"target": "Ylr278c (UniProt Q05854)", "test": "PBM E-score (8-mer binding enrichment) (E-score (-0.5 to 0.5)); higher = stronger / more preferred TF binding; most listed sequences are background and not binding sites", "details": "protein concentration: 200 nM; construct: GST-DNA-binding domain", "procedure,_shortened": "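The E-score, a modified Wilcoxon-Mann-Whitney statistic, was computed by the Universal PBM Analysis Suite for every ungapped eight-base word pooled with its reverse complement. Scans behind it were normalised with masliner after bound GST-tagged yeast transcription factors were detected with fluorescent anti-GST. The proteins, at about 100-200 nM, had been applied to universal all-10-mer Agilent arrays made double-stranded by primer extension.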", "values": [{"sequence": "ACAGAAAA", "PBM E-score": 0.00544}, {"sequence": "AGATCATA", "PBM E-score": -0.0376}, {"sequence": "CCGCAAGA", "PBM E-score": 0.249}, {"sequence": "AATATAGA", "PBM E-score": -0.109}, {"sequence": "AAACTCCT", "PBM E-score": 0.23}, {"sequence": "AGCATCGG", "PBM E-score": 0.311}, {"sequence": "GGTTTCCA", "PBM E-score": -0.153}, {"sequence": "CGTTAGCA", "PBM E-score": -0.0483}, {"sequence": "GACGAAAA", "PBM E-score": 0.113}, {"sequence": "AGTTAGTA", "PBM E-score": -0.0364}, {"sequence": "ACTGCTAC", "PBM E-score": -0.184}, {"sequence": "AGCCGGCT", "PBM E-score": 0.247}, {"sequence": "AGGATCTG", "PBM E-score": -0.301}, {"sequence": "CTTAGCCC", "PBM E-score": -0.0135}, {"sequence": "GTTGTTAA", "PBM E-score": 0.0758}, {"sequence": "CTTAGCAC", "PBM E-score": 0.19}, {"sequence": "GCTATAAA", "PBM E-score": -0.0727}, {"sequence": "CGTTCGTA", "PBM E-score": 0.0114}, {"sequence": "ACGTACCG", "PBM E-score": -0.0502}, {"sequence": "GAATGATC", "PBM E-score": -0.0676}, {"sequence": "AGGTACCT", "PBM E-score": -0.183}, {"sequence": "CCTGAATC", "PBM E-score": -0.0576}, {"sequence": "TATGGAGA", "PBM E-score": -0.115}, {"sequence": "GCTAAGAA", "PBM E-score": -0.0627}, {"sequence": "ACCATACA", "PBM E-score": -0.203}, {"sequence": "CGTAAGAG", "PBM E-score": -0.0166}, {"sequence": "CAATATGG", "PBM E-score": -0.183}, {"sequence": "AACCTACG", "PBM E-score": -0.107}, {"sequence": "GTTTTGGA", "PBM E-score": -0.101}, {"sequence": "CTCGACAA", "PBM E-score": -0.169}, {"sequence": "ACCCGTGG", "PBM E-score": -0.117}, {"sequence": "ATCGATAA", "PBM E-score": -0.0278}, {"sequence": "CAGAGCCA", "PBM E-score": -0.311}, {"sequence": "ATCCTTAC", "PBM E-score": -0.0586}, {"sequence": "ATAGATGA", "PBM E-score": -0.158}, {"sequence": "CGGGCAAA", "PBM E-score": 0.247}, {"sequence": "AGGCTTTA", "PBM E-score": -0.102}, {"sequence": "ACACGGAA", "PBM E-score": 0.288}, {"sequence": "AAAAGTAC", "PBM E-score": 0.0462}, {"sequence": "GGTTAGTA", "PBM E-score": 0.0313}, {"sequence": "ATGTTACA", "PBM E-score": -0.164}, {"sequence": "CCAGATTA", "PBM E-score": -0.0961}, {"sequence": "ACTAGTTC", "PBM E-score": -0.146}, {"sequence": "ACCCCTTG", "PBM E-score": -0.292}, {"sequence": "ATATACAG", "PBM E-score": -0.0931}, {"sequence": "GCGAACGC", "PBM E-score": 0.0827}, {"sequence": "CAGCTTGC", "PBM E-score": -0.075}, {"sequence": "CACTGTTC", "PBM E-score": -0.143}, {"sequence": "TAAGTTCA", "PBM E-score": -0.145}, {"sequence": "CTAGCAGC", "PBM E-score": -0.221}, {"sequence": "GCATCGTA", "PBM E-score": -0.0408}, {"sequence": "AGTTCGGG", "PBM E-score": 0.281}, {"sequence": "GCAGTCTA", "PBM E-score": -0.192}, {"sequence": "ATCTGCAG", "PBM E-score": -0.0189}, {"sequence": "GCAGCTAA", "PBM E-score": -0.195}, {"sequence": "GAAATTAC", "PBM E-score": 0.109}, {"sequence": "CGCAGTAA", "PBM E-score": 0.0396}, {"sequence": "CGCGACCG", "PBM E-score": 0.172}, {"sequence": "GAGAGCGC", "PBM E-score": 0.153}, {"sequence": "TCGACTCA", "PBM E-score": -0.106}, {"sequence": "CAAGCCGG", "PBM E-score": 0.263}, {"sequence": "ACGCCTAT", "PBM E-score": -0.0906}, {"sequence": "AAGCTTTC", "PBM E-score": 0.0366}, {"sequence": "TCAGCAAA", "PBM E-score": -0.104}, {"sequence": "ATTTCCTA", "PBM E-score": -0.0235}, {"sequence": "AAGTTTCT", "PBM E-score": -0.169}, {"sequence": "ATCCGTCA", "PBM E-score": 0.159}, {"sequence": "ACGGGCGG", "PBM E-score": 0.299}, {"sequence": "CTGACTGC", "PBM E-score": -0.113}, {"sequence": "GTGGAGGA", "PBM E-score": -0.0524}, {"sequence": "GACACGCC", "PBM E-score": 0.066}, {"sequence": "AGCTGGTA", "PBM E-score": -0.144}, {"sequence": "CTCAGTCA", "PBM E-score": -0.282}, {"sequence": "GGAAATTA", "PBM E-score": 0.22}, {"sequence": "TACTCAGA", "PBM E-score": -0.0279}, {"sequence": "ATTAGAGC", "PBM E-score": -0.0167}, {"sequence": "ACATCGAT", "PBM E-score": -0.137}, {"sequence": "ACTAAGGA", "PBM E-score": -0.157}, {"sequence": "TCGCCCGA", "PBM E-score": 0.101}, {"sequence": "CGGATAGC", "PBM E-score": 0.175}, {"sequence": "CCGTCAAA", "PBM E-score": 0.133}, {"sequence": "GATTTGAA", "PBM E-score": -0.062}, {"sequence": "GAGAGCCC", "PBM E-score": -0.16}, {"sequence": "ACAGTCTG", "PBM E-score": -0.121}, {"sequence": "GAGCCAGA", "PBM E-score": -0.0255}, {"sequence": "TACGATAA", "PBM E-score": -0.114}, {"sequence": "CAAATTTC", "PBM E-score": -0.0917}, {"sequence": "AACTCGCT", "PBM E-score": 0.0858}, {"sequence": "AGCTCGCA", "PBM E-score": -0.0507}, {"sequence": "GACCACTC", "PBM E-score": 0.0871}, {"sequence": "ACATACCG", "PBM E-score": 0.0629}, {"sequence": "AGCATCAT", "PBM E-score": -0.127}, {"sequence": "AAAGGAAG", "PBM E-score": -0.0494}, {"sequence": "GCCTGATA", "PBM E-score": -0.235}, {"sequence": "CTCGCGAA", "PBM E-score": -0.0696}, {"sequence": "GTACCTCA", "PBM E-score": -0.28}, {"sequence": "CTAGGCAC", "PBM E-score": -0.208}, {"sequence": "GTGAGCCA", "PBM E-score": -0.292}, {"sequence": "ATAAATAA", "PBM E-score": 0.0464}, {"sequence": "CAATGGAA", "PBM E-score": 0.0782}, {"sequence": "CCTCTTCA", "PBM E-score": -0.238}, {"sequence": "ATAAGTAA", "PBM E-score": 0.0323}, {"sequence": "CGGGATCC", "PBM E-score": 0.368}, {"sequence": "CCGTGAAA", "PBM E-score": 0.194}, {"sequence": "CTTTACTA", "PBM E-score": 0.0323}, {"sequence": "AACTTGCA", "PBM E-score": -0.179}, {"sequence": "GCCCCTGA", "PBM E-score": -0.191}, {"sequence": "ACGGTTTG", "PBM E-score": 0.0382}, {"sequence": "AATTAGCC", "PBM E-score": 0.0197}, {"sequence": "AGATTATG", "PBM E-score": 0.0457}, {"sequence": "AGCGTGGG", "PBM E-score": -0.254}, {"sequence": "ACATCATA", "PBM E-score": -0.0593}, {"sequence": "CCATCCCC", "PBM E-score": 0.156}, {"sequence": "CACATGCG", "PBM E-score": 0.111}, {"sequence": "CTCTTAGA", "PBM E-score": -0.168}, {"sequence": "TCGTCACA", "PBM E-score": -0.105}, {"sequence": "AGAAAAAC", "PBM E-score": 0.0493}, {"sequence": "CCGGTCCC", "PBM E-score": 0.355}, {"sequence": "ATTACGAG", "PBM E-score": -0.0563}, {"sequence": "GTAACGAC", "PBM E-score": 0.114}, {"sequence": "TACCAAAA", "PBM E-score": -0.112}, {"sequence": "CATTCTTC", "PBM E-score": 0.0143}, {"sequence": "CACTAGCA", "PBM E-score": -0.317}, {"sequence": "AGATACGA", "PBM E-score": -0.0945}, {"sequence": "ATGGGCTG", "PBM E-score": -0.205}, {"sequence": "TCGGCCAA", "PBM E-score": 0.135}, {"sequence": "CGAATGGC", "PBM E-score": 0.189}, {"sequence": "CAGGGACG", "PBM E-score": -0.203}, {"sequence": "CAGCCCAA", "PBM E-score": -0.0577}, {"sequence": "CCCACTGC", "PBM E-score": -0.0779}, {"sequence": "GGCCACGA", "PBM E-score": 0.0243}, {"sequence": "TAGCTCCA", "PBM E-score": -0.104}, {"sequence": "AGTGGCGG", "PBM E-score": 0.231}, {"sequence": "CGAACCGA", "PBM E-score": 0.109}, {"sequence": "TCGTGCCA", "PBM E-score": -0.159}, {"sequence": "CCACTTTC", "PBM E-score": -0.136}, {"sequence": "AATCACCA", "PBM E-score": 0.0335}, {"sequence": "ACAGGCCC", "PBM E-score": -0.189}, {"sequence": "AACTAAAT", "PBM E-score": -0.0699}, {"sequence": "GCTGGCCC", "PBM E-score": -0.0263}, {"sequence": "CTTTACAC", "PBM E-score": 0.022}, {"sequence": "AGATATGC", "PBM E-score": -0.00585}, {"sequence": "AAGCGTCC", "PBM E-score": -0.275}, {"sequence": "CAGCAGAG", "PBM E-score": -0.234}, {"sequence": "AAGGTACA", "PBM E-score": -0.244}, {"sequence": "AAAAGTCA", "PBM E-score": -0.157}, {"sequence": "CGCTAAAG", "PBM E-score": -0.0186}, {"sequence": "ACTTGTGC", "PBM E-score": 0.00801}, {"sequence": "CAAAGAGA", "PBM E-score": -0.174}, {"sequence": "AAATCCTC", "PBM E-score": -0.0805}, {"sequence": "ATAACTCC", "PBM E-score": 0.378}, {"sequence": "TCGTTGAA", "PBM E-score": -0.196}, {"sequence": "CATATACA", "PBM E-score": -0.0818}, {"sequence": "CTAGGTAC", "PBM E-score": -0.176}, {"sequence": "ACCGAGCT", "PBM E-score": 0.0592}, {"sequence": "GGATGCCC", "PBM E-score": 0.0741}, {"sequence": "ATGGTCAA", "PBM E-score": -0.206}, {"sequence": "CGCAGACA", "PBM E-score": -0.00384}, {"sequence": "CATAGTGA", "PBM E-score": -0.217}, {"sequence": "CATCCCAG", "PBM E-score": -0.192}, {"sequence": "ATATTCCA", "PBM E-score": 0.0484}, {"sequence": "CTGCACCC", "PBM E-score": 0.00118}, {"sequence": "ATGACGGC", "PBM E-score": 0.123}, {"sequence": "CGAGGAAA", "PBM E-score": 0.0788}, {"sequence": "CTATTTTC", "PBM E-score": 0.0457}, {"sequence": "GCGCTGAC", "PBM E-score": 0.0851}, {"sequence": "GTCACCTA", "PBM E-score": -0.286}, {"sequence": "GTCAGTCA", "PBM E-score": -0.103}, {"sequence": "CTGTATAC", "PBM E-score": -0.114}, {"sequence": "ACTTAATC", "PBM E-score": -0.121}, {"sequence": "ACGATTGC", "PBM E-score": 0.0419}, {"sequence": "GGCATCAC", "PBM E-score": 0.0292}]}]}
